In all, about 110,000 compounds were measured (“z-score”: median about -0.1, highest 2% from about 2 on). Some of the results follow. The source made the active and inactive calls.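 The calls were made as follows: active = z-score in the third read window above 3 or below -3; inactive = the rest.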
target: Metabotropic glutamate receptor 8 (Rattus norvegicus) (UniProt P70579); assay: rat mGluR8 modulators via GIRK flux, primary screen, cell-based, thallium flux, HTS (AID 488969); conditions: HEK293 rat mGluR8, GIRK (G protein-gated inwardly rectifying potassium channel) thallium flux, FluoZin2; at 10 µM; stronger effect = higher value; submaximal glutamate (EC20) added with thallium
UniProt P70579, sequence (P70579 whole entry, looked up): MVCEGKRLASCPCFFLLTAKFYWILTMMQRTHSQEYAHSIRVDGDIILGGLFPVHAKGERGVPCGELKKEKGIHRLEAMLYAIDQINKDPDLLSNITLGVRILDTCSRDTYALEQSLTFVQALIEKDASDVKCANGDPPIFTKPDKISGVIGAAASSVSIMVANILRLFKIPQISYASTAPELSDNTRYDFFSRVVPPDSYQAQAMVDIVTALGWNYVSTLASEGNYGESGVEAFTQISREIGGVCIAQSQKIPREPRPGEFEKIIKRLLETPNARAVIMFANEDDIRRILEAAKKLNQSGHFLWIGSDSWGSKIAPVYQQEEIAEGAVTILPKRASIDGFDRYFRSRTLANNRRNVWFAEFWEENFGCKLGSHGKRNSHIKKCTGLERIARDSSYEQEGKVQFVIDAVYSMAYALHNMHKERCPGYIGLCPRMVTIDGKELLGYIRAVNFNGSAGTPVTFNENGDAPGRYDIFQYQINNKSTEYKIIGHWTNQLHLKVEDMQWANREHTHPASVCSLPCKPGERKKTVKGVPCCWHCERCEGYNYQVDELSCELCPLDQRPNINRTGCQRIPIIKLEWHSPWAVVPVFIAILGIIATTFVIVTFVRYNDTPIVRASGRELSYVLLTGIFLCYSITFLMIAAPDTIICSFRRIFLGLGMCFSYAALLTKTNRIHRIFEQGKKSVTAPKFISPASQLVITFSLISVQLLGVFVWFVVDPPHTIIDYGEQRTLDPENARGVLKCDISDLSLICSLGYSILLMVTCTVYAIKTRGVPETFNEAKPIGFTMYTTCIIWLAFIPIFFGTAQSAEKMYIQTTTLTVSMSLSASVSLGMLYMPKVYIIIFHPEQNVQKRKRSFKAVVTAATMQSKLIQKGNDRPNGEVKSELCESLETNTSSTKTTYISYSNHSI

Row | Compound | z-score
1 | COc1ccccc1C(=O)NCCN1CCN(C(=O)c2ccccc2OC)CC1 | 1.35
2 | CN(C(=S)NC(=O)CCCOc1ccc(Cl)cc1Cl)c1ccccc1 | active: 4
3 | CC(C)(C)C(=O)Nc1cc(S(=O)(=O)Nc2ccc(Cl)cc2)ccc1Cl | -0.577
4 | O=C(/C=C/c1ccc(Cl)cc1Cl)Nc1cccc(S(=O)(=O)NC2=NCCCCC2)c1 | -1.33
5 | CC1(C)CC(=O)c2sc(NC(=O)C3CC3)nc2C1 | -0.251
6 | CCOC(=O)c1c(C)nc2c(C)cccn12 | 0.405
7 | O=S(=O)(c1ccccc1)N1CCN(CC(O)COc2ccc3c(c2)CCC3)CC1 (stereo unspecified) | 0.35
8 | O=C1OCCC1Sc1ncnc2sccc12 (stereo unspecified) | 0.0809
9 | CCOc1c(Br)cc(/C=C2\C(=O)N(CCC#N)N=C2C)cc1OC | 0.542
10 | CC(=O)c1cccc(NC(=O)C=C(C)C)c1 | 0.155
11 | CC(C)Oc1cccc(C(=O)NC(=S)Nc2cccc(NC(=O)c3ccccc3Cl)c2)c1 | -0.41
12 | N#Cc1ccsc1NC(=O)CN1CCCCCC1 | 0.519
13 | O=C(Oc1ccc(=O)n(-c2ccccc2)n1)c1cccc(Cl)c1 | -1.51
14 | Cc1ccc(-c2n[nH]c(=O)c3ccccc23)cc1S(=O)(=O)NCCO | -0.17
15 | Brc1ccc(-c2csc(N3CCc4ccccc4C3)n2)cc1 | 0.172
16 | COc1ccc(C)c2sc(=NC(=O)C(C)C)n(C)c12 | -1.24
17 | CCCNC(=S)N1CCC(c2nc3cc(C)c(C)cc3[nH]2)CC1 | -0.228
18 | CSc1nc(Cl)c(Cc2ccc(OC(C)C)cc2)c(N2CCOCC2)n1 | -0.362
19 | Cc1ccc(C)c(NC(=O)Cc2coc3cc4c(cc23)CCC4)c1 | -0.0548
20 | O=C(CSc1nc2ccccc2s1)Nn1cnnc1 | -0.255
21 | O=C1CN(C(=O)COC(=O)C2CCN(S(=O)(=O)c3ccccc3C(F)(F)F)CC2)c2ccccc2N1 | -0.529
22 | CN1CCN(c2ccc(Cl)cc2NS(=O)(=O)c2ccccc2Cl)CC1 | 0.736
23 | Cc1ccc(SCCCCN2CCNCC2)cc1 | -0.134

Row | Compound | z-score
24 | CCOC(=O)N1CCN(C(=O)c2ccc(NC(=O)CC)cc2)CC1 | -0.194
25 | Cc1[nH]c2ccccc2c1/C=N/NC(=O)C1CC1(c1ccccc1)c1ccccc1 (stereo unspecified) | -0.129
26 | CC(C)C(=O)Nc1sc2c(c1-c1nc3ccccc3[nH]1)CCCC2 | 0.0241
27 | O=C(COc1ccc(S(=O)(=O)N2CCCC2)cc1)NCc1ccco1 | 0.347
28 | COc1cc(NC(=S)NN2CCOCC2)cc(OC)c1 | 0.132
29 | COCCCN(Cc1ccccn1)S(=O)(=O)Cc1ccccc1 | -0.148
30 | CN(C(=O)c1ccccc1C(=O)OCC(=O)NCc1ccccc1)C1CCCCC1 | -0.146
31 | CC1(C)Cc2c(c(-c3ccco3)nc3sc4c(NCC5CCCO5)ncnc4c23)CO1 (stereo unspecified) | -0.335
32 | Cc1noc(C)c1CSc1nc2ccccc2[nH]1 | -0.0552
33 | O=C1CSC(c2cccnc2)N1c1ccc(F)cc1 (stereo unspecified) | 0.224
34 | O=C1CC(c2ccc(F)cc2)CC(O)=C1C=NCCN1CCN(C(=O)Nc2ccccc2)CC1 (stereo unspecified) | -0.646
35 | CCOC(=O)Cc1csc(NC(=O)NC2(C(F)(F)F)Oc3ccc(Cl)cc3O2)n1 (stereo unspecified) | -0.0187
36 | O=C(CSc1nnnn1-c1ccc(Cl)cc1)Nc1cccnc1Cl | -0.309
37 | N=C1c2ccccc2CN1NC(=O)c1cccc(S(=O)(=O)N2CCCC2)c1 | -0.196
38 | COc1ccccc1-c1nnc(SCC(=O)OC(C)C)o1 | -1.43
39 | CC(CN1CCCCC1)OC(=O)C1c2ccccc2Oc2ccccc21 (stereo unspecified) | 1.28
40 | Fc1ccc(Cn2nnnc2CN2CCN(C3CCCCC3)CC2)cc1 | 0.354
41 | O=C(CSc1ccc(Cl)cc1)N1CCN(c2c(Cl)cccc2[N+](=O)[O-])CC1 | -0.078
42 | O=C(c1ccccn1)N1CCN(C(=O)c2ccccn2)CC1 | -0.302
43 | O=C(NNS(=O)(=O)c1ccccc1)c1sccc1-n1cccc1 | 0.148
44 | O=C(NCC1CCCO1)C(c1ccc(F)cc1)N(Cc1ccc(F)cc1)C(=O)Cn1nnc(-c2cccs2)n1 (stereo unspecified) | 2.46
45 | CCOC(=O)C1=C(Cc2ccc(F)cc2)C(=O)c2ccccc2C1=O | 0.161
46 | O=C(COC(=O)CNS(=O)(=O)c1c(Cl)cccc1Cl)Nc1ccccc1Sc1ccccc1 | -0.588

Row | Compound | z-score
47 | CC(=O)Nc1ccc(SCC(=O)Nc2cc(C(C)(C)C)nn2-c2ccccc2)cc1 | 0.0545
48 | CC1(C)N=C(N)NC(Nc2ccccc2)=N1 | -0.0426
49 | CCOc1ccc(NC(=O)CSc2ncn[nH]2)c([N+](=O)[O-])c1 | -0.158
50 | COc1ccc(-c2cc(C(F)(F)F)n3nc(C(=O)N4CCCCC4)cc3n2)cc1 | -0.582
51 | CCOC(=O)N1CCN(S(=O)(=O)c2ccc3c(c2)CCN3C(=O)CC)CC1 | -1.1
52 | CC1(C)Cc2cccc(OCC(=O)N3CCN(c4ccc([N+](=O)[O-])cc4)CC3)c2O1 | -1.17
53 | COc1ccc(NC(=O)C2CCCO2)cc1Cl (stereo unspecified) | -0.016
54 | COC(=O)c1ccc(CNC(=O)CN(CCC(C)C)S(=O)(=O)c2ccc3c(c2)OCCO3)cc1 | -0.397
55 | O=C(Cn1c(=O)oc2cc(S(=O)(=O)N3CCCCCC3)ccc21)NC1CCCCCCC1 | -0.034
56 | Cc1cc(C)c(NC(=O)OCCN2CCOCC2)c(C)c1 | 0.317
57 | CCN1CCN(c2nn3c(=O)c4ccccc4nc3c3ccccc23)CC1 | -0.106
58 | Cc1ccc(C(=O)Oc2ccc(C(=O)COC(=O)c3cnccn3)cc2)cc1 | -0.169
59 | Cc1ccc(C)c(NC(=S)NCC(c2cccnc2)N2CCOCC2)c1 (stereo unspecified) | -0.0513
60 | CCc1c(C)sc(NC(=O)c2cc(CC(C)C)on2)c1C#N | 1
61 | Cc1ccc(NC(=O)N2CCC(O)(c3ccc(Cl)cc3)CC2)cc1 | 1.93
62 | Cn1c(CCNC(=O)c2ccccc2Cl)n[nH]c1=S | -0.00935
63 | CCOC(=O)/C=C1\SCC(=O)N1CC(=O)NC12CC3CC(CC(C3)C1)C2 | -0.288
64 | O=C(Cc1cccc2ccccc12)N/N=C/c1ccc(Sc2nc3ccccc3s2)o1 | 0.902
65 | Cc1nc(NC(=O)CSc2nnnn2Cc2ccccc2)sc1C | 0.876
66 | CCOC(=O)c1cnc(SC)nc1Oc1cccc(NC(=O)c2cccc(Cl)c2Cl)c1 | -0.241
67 | COc1cccc(N2C(=O)N(c3ccccc3Cl)C3CS(=O)(=O)CC32)c1 (stereo unspecified) | 0.188
68 | O=C(N/N=C/c1cccs1)c1cccs1 | 0.0886
69 | CCn1c(SCc2ccc([N+](=O)[O-])cc2)nnc1C(C)NC(=O)c1ccccc1Br (stereo unspecified) | -0.0635

Row | Compound | z-score
70 | COc1ccc2[nH]c(=O)c(CN(CCO)S(=O)(=O)c3c(C)ccc4nsnc34)cc2c1 | -0.318
71 | CC(C)(C)c1ccc(OCC(=O)NC2CCS(=O)(=O)C2)cc1 (stereo unspecified) | 0.0553
72 | CN(C)c1ccc(C(CC(=O)c2ccccc2)C2CCCCC2=O)cc1 (stereo unspecified) | -0.0876
73 | CC(NC(=O)CSc1nnc(CC(=O)Nc2ccc(Cl)c(Cl)c2)n1C)c1ccccc1 (stereo unspecified) | -0.212
74 | O=C(O)C1CCCN1C(=O)Nc1ccccc1 (stereo unspecified) | 0.0553
75 | CCOC(=O)N1CCN(c2cc(N)c([N+](=O)[O-])cc2F)CC1 | -0.104
76 | Cc1ccc(-c2ccc(/C=N/NC(=O)CN3CCCC3)o2)cc1Cl | 0.409
77 | Cc1ccc(C(=O)/C=C/c2ccc3c(c2)OCO3)o1 | -0.964
78 | Cc1ccc2[nH]c(=O)c(CN(CCc3ccccc3)Cc3nnnn3CC3CCCO3)cc2c1 (stereo unspecified) | -0.197
79 | Cc1ccc(CNCc2ccccc2Cl)cc1 | 0.258
80 | Cc1ccc(CCN2CC(C(=O)NCCCN(C)Cc3ccccc3)CC2=O)cc1 (stereo unspecified) | 0.0485
81 | Cc1cnc(NC(=O)CSc2ccccc2)s1 | -0.175
82 | CSc1nc(N)nc(SCC(=O)Nc2ccc(Cl)cc2)c1C#N | -0.243
83 | O=C(O)c1cccc(COCC(F)(F)C(F)F)c1 | -0.099
84 | CC(=O)/C=N/Nc1ccccc1 | -0.139
85 | O=C(CN1CCC(n2nnc3cc(F)ccc32)CC1)NCCc1ccccc1 | -0.181
86 | COC(=O)C1=C(CSc2nnnn2C)NC(=O)NC1c1cc(C)ccc1C (stereo unspecified) | -0.3
87 | Cc1ccc(-n2[nH]c(C)c(/C=N/Nc3ccc([N+](=O)[O-])cc3[N+](=O)[O-])c2=O)cc1 | -0.814
88 | N#CC1=C2SCN(Cc3ccccc3)CN2C(=O)CC1c1ccccc1F (stereo unspecified) | 0.115
89 | Cc1cccc(NC(=O)c2ccccc2NC(=O)C2CCCCC2)c1C | -0.131
90 | COc1ccc(C(=O)N(Cc2ccc(N(C)C)cc2)C2CCS(=O)(=O)C2)cc1 (stereo unspecified) | 0.338
91 | COc1ccc(-c2nnc(SCC(=O)N3CCC(Cc4ccccc4)CC3)o2)cc1OC | -0.465
92 | CCOc1cc(C(=O)NC(C)COC)cc(OCC)c1OCC (stereo unspecified) | -1.51

Row | Compound | z-score
93 | CC(CN1CCOCC1)OC(=O)C(c1ccccc1)c1ccccc1 (stereo unspecified) | 0.0321
94 | CC(C)(C)OC(=O)NCCc1nnc(SCc2c(Cl)cccc2Cl)o1 | -0.686
95 | CC1(C)Cc2c(c(N3CCOCC3)nc3snc(NC(=O)c4ccccc4)c23)CO1 | 0.0329
96 | Cc1ccc(Cl)cc1NC(=O)CSc1nnc(C)n1-c1ccccc1 | 0.427
97 | O=C(N/N=C/c1ccc(OC(=O)c2ccccc2)cc1)c1ccc(CN2CCOCC2)cc1 | 0.54
98 | Cc1nc2ccc(NC(=O)c3ccc(Cl)s3)cc2s1 | -0.159
99 | COc1ccc(C(NC(=O)c2ccc(F)cc2)c2ccccc2)cc1 (stereo unspecified) | -0.0936
100 | N/C(=N\OS(=O)(=O)c1ccc(Cl)cc1)c1ccncc1 | -0.373
101 | O=C(NCc1ccccc1)c1ccc(Cn2cc(C(F)(F)F)ccc2=O)cc1 | -0.124
102 | Cn1c(=O)cc(OCCCC(=O)NCc2ccc3c(c2)OCO3)c2ccccc21 | active: 8.84
103 | O=C(O/N=C1/CCCc2occc21)c1ccccc1 | -0.154
104 | CCC(=O)CCC(=O)c1ccc2ccccc2c1 | 0.241
105 | COc1ccc(OCC(=O)NNC(=O)C(=O)N2CCCC2)cc1 | 0.0724
106 | CCCOc1ccc(CCc2n[nH]c(=S)n2Cc2ccccc2)cc1 | -0.306
107 | CC(C)CC(=O)Nc1nnc(SCC(=O)Nc2ccc3c(c2)OCO3)s1 | 0.256
108 | COc1ccc(N/C=C(\C#N)c2nc3ccccc3n2C)c(OC)c1 | 0.286
109 | CC1CCN(CCOCCOc2ccc(Cl)cc2Br)CC1 | 0.206
110 | COC(=O)c1scc(C)c1N/N=C(\C)c1cc(F)c(Cl)cc1F | -0.00092
111 | Nc1ccc2nc(-c3ccccn3)[nH]c2c1 | 0.037
